Measured values published in publication PMC7819943, “Rice protein-binding microarrays: a tool to detect cis-acting elements near promoter regions in rice”.
The list shows a part of the results.

Biological target: T1, OsWOX13 (Oryza sativa, UniProt Q5QMM3 1-267)
T1 sequence: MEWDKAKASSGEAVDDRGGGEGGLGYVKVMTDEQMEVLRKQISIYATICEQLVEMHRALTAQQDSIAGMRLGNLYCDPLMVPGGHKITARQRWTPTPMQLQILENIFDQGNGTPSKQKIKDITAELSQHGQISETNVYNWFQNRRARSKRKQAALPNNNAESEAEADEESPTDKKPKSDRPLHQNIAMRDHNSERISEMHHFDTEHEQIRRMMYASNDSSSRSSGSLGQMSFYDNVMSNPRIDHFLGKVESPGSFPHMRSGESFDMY
Experiment: protein-binding microarray (RPBM); PBS, 2% BSA, 51.3 ng/ul salmon testes DNA, 50 uM zinc acetate, 200 nM TF, 25 C, 1 h; high values mean tight binding
Conditions: protein: recombinant; tags: N-terminal polyhistidine and DsRed monomer fusion (pET32a); label: CyDye5-dUTP incorporated in the synthesized complementary strand; 3' TTTTT single-stranded linker to array surface; dsDNA, one strand shown
Method in brief: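 An Axon 4000B scanner gave the binding signal as per-feature fluorescence intensity in arbitrary units. This followed washing of a custom Agilent array that had been incubated for 1 h at 25 °C with 200 nM protein in PBS, 2% BSA, salmon testes DNA and 50 µM zinc acetate. The proteins were transcription factors fused at the N-terminus to polyhistidine and DsRed, expressed in E. coli BL21-CodonPlus and purified on Ni–NTA.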

Row | Sequence | binding signal
1 | ACTGTACTGATTACATCATTTGACTAGGTCGTTGCACGCGCGGAGTCACCTAGTGCAG | 15700 fluorescence intensity (a.u.)
2 | ATTTAATGGAACTAATTTGGTGTCCTAGATATTGTTATTTCGGAGTCACCTAGTGCAG | 28600 fluorescence intensity (a.u.)
3 | GAATTGAATTATTAGTATCTTAATTATTTGTTTAAAATATCGGAGTCACCTAGTGCAG | 3230 fluorescence intensity (a.u.)
4 | ACAGATTGCTCCACTTCGCCTGCCTGCTTCGCCCACCGTCCGGAGTCACCTAGTGCAG | 5250 fluorescence intensity (a.u.)
5 | GTTACATGACAATTGACAATCTAATCAGTATGTTATTGTCCGGAGTCACCTAGTGCAG | 16100 fluorescence intensity (a.u.)
6 | CTTTAATTTGCATGTCTCTCCATCACTACCAAATTCGGCTCGGAGTCACCTAGTGCAG | 40800 fluorescence intensity (a.u.)
7 | AATGTGATTTTCATGTATCCAATTAAAATATTTTAAGAAGCGGAGTCACCTAGTGCAG | 9180 fluorescence intensity (a.u.)
8 | CAAGGGATAAACATATAGAGACAGACAAATTGGAAGGAACCGGAGTCACCTAGTGCAG | 45600 fluorescence intensity (a.u.)
9 | GCAGCCAATTAAATTTTGTTATTTCTACCCATTACTTGTTCGGAGTCACCTAGTGCAG | 13000 fluorescence intensity (a.u.)
10 | TGAAATGAAATCAATCTAACAATCCTAAAAGCCCTTCCTCCGGAGTCACCTAGTGCAG | 11600 fluorescence intensity (a.u.)
11 | CAAAATTAATAATAAACTATGAGCTTTATTTTAGTAATTACGGAGTCACCTAGTGCAG | 11700 fluorescence intensity (a.u.)
12 | TGCCTTGAATTTGATTGCAATCCTCAGTTTTCCTAAACTGCGGAGTCACCTAGTGCAG | 26800 fluorescence intensity (a.u.)
13 | CCTGTTGATTTCATATTCCTCAGATCTTGAATTTTGTTTGCGGAGTCACCTAGTGCAG | 8470 fluorescence intensity (a.u.)
14 | CATCGTGCAATTGATTGATCGTCTGATTTTATGTCGATTCCGGAGTCACCTAGTGCAG | 42600 fluorescence intensity (a.u.)
15 | CATAAATGAGATCCAGTGACGGCATGAGCATGTCCCAATTCGGAGTCACCTAGTGCAG | 3900 fluorescence intensity (a.u.)
16 | AAAATTAATTATAAATATTAAACGTAGACTATTAATAAAACGGAGTCACCTAGTGCAG | 4460 fluorescence intensity (a.u.)
17 | ATCTGAATCGTCCATTATCCATCATTCATTTATCATCTACCGGAGTCACCTAGTGCAG | 3270 fluorescence intensity (a.u.)
18 | CGCTGATGCGCGTGTGATGATTGCTGTGGTTTTATTCTCCCGGAGTCACCTAGTGCAG | 10200 fluorescence intensity (a.u.)
19 | TTAATTATCATTAAATTTGATCGTGCTTAAATTTGGAGGTCGGAGTCACCTAGTGCAG | 24800 fluorescence intensity (a.u.)
20 | TGCTAGATTAAATTTTAAAACTATATTGTTCCTTTCATATCGGAGTCACCTAGTGCAG | 12400 fluorescence intensity (a.u.)
21 | TGTAATCTTTGATTAGTACTAATCTGATGATCCGAGATTCCGGAGTCACCTAGTGCAG | 25700 fluorescence intensity (a.u.)

Row | Sequence | binding signal
22 | GTGATGACGAGGATACCGAACTTGACGGTAGCCTACTCGCCGGAGTCACCTAGTGCAG | 4530 fluorescence intensity (a.u.)
23 | ACTGACAGTTTCTGTTCGTGCAACTGATGGAATTCAGAGGCGGAGTCACCTAGTGCAG | 8430 fluorescence intensity (a.u.)
24 | TTTGTGATGGTTGATTTGGTGTTAGACTTTTCCTCATTAGCGGAGTCACCTAGTGCAG | 7240 fluorescence intensity (a.u.)
25 | AGTAATTTGTGAATTAAACTTTTATATACGTGTTCTTAGCCGGAGTCACCTAGTGCAG | 42200 fluorescence intensity (a.u.)
26 | GAGGAGTAACGACATTAATTACCGTTGCTCTTACCGGATCCGGAGTCACCTAGTGCAG | 4260 fluorescence intensity (a.u.)
27 | GCAATTCTCTAAGTTAATTAATTAGGAAGTCACAGAATACCGGAGTCACCTAGTGCAG | 19500 fluorescence intensity (a.u.)
28 | GTAGATTTGAATAGTACCTAGGGTTTGCTGGTGAGTTGAGCGGAGTCACCTAGTGCAG | 6360 fluorescence intensity (a.u.)
29 | TGATAACTTCAATTTTAAATATGCAGTTTTATTTAACCTTCGGAGTCACCTAGTGCAG | 5930 fluorescence intensity (a.u.)
30 | AGTAATTTAACTATTGAGCAGTCAGTCTCCTCCAAAGCATCGGAGTCACCTAGTGCAG | 26400 fluorescence intensity (a.u.)
31 | CTTAACTGATACAACATTAAGTATGAAATGAAGAACGATACGGAGTCACCTAGTGCAG | 15300 fluorescence intensity (a.u.)
32 | TTATATCGTTTTAATTTCAATTAAACTTTCAATTTTAGTGCGGAGTCACCTAGTGCAG | 8150 fluorescence intensity (a.u.)
33 | ATATAATGGGCACTATGATTTGCTCTAAATATTGGTCATTCGGAGTCACCTAGTGCAG | 28800 fluorescence intensity (a.u.)
34 | TCAGCACACACGCTTTGCTGTGATTGGTTCTGACACGACACGGAGTCACCTAGTGCAG | 4040 fluorescence intensity (a.u.)
35 | AACAAATCATACGGTTTCAGATGACCATATATGTAACCATCGGAGTCACCTAGTGCAG | 3500 fluorescence intensity (a.u.)
36 | ATAACTGATTAGTGGTTGTTTAGTAGCTGTTGGGGTTTACCGGAGTCACCTAGTGCAG | 38200 fluorescence intensity (a.u.)
37 | TAACGTAATCACCCGACTGATTTATAAGGGTATGAAATGGCGGAGTCACCTAGTGCAG | 23900 fluorescence intensity (a.u.)
38 | TTCCTCTTCCGATCTCCAATCAACGATACCACACACAATCCGGAGTCACCTAGTGCAG | 6150 fluorescence intensity (a.u.)
39 | TATAAAATAGATTTAGGAAACCGATACCGTGTTGGTTAATCGGAGTCACCTAGTGCAG | 5260 fluorescence intensity (a.u.)
40 | TCTAAATCTTAATTTGAATATTCAATTTTACCCATGATAGCGGAGTCACCTAGTGCAG | 16900 fluorescence intensity (a.u.)
41 | TAGAGGGTTGTGATTGGTTAGTAAGAGAATGTTGGTGGTGCGGAGTCACCTAGTGCAG | 14000 fluorescence intensity (a.u.)
42 | AATTTGATATAGTAATTTCTATCTACTTATGTCACCCACTCGGAGTCACCTAGTGCAG | 5870 fluorescence intensity (a.u.)
